Counter-ions that a name gives are not always drawn. ± gives the standard deviation of the averaged measurements. Over roughly 2,600 compounds, “MBP+ mature oligodendrocyte number relative to DMSO vehicle control” has its median near -0.34; the highest 2% begin near 13. Some of the results follow. Bounds are passed on as bounds.

The experiment relates to jimpy (Plp1 jimpy) mouse iPSC-derived oligodendrocyte progenitor cells. In words: MBP+ mature oligodendrocyte number relative to DMSO vehicle control (SDs above negative control mean); higher = more surviving jimpy oligodendrocytes (rescue). Particulars: 10 µM; 3 days. The procedure:
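Primary phenotypic screen of >3,000 bioactive compounds (Selleck L1700 and Sigma LO1280 libraries) at a single dose of 10 µM. Compounds were added to jimpy (Plp1 mutant) mouse iPSC-derived OPCs at the start of thyroid hormone-induced oligodendrocyte differentiation, one well per compound in 384-well plates. After 3 days cells were stained for MBP, Sox10 and DAPI and imaged with an Operetta system. MBP+ oligodendrocyte number and total cell number were expressed as the number of SDs above the mean of the DMSO negative control on the same plate (n=16 control wells per plate). Hits were defined as >=4 SD for oligodendrocytes and >=2 SD for total cells.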
`[I-].[K+]` [Potassium Iodide]: the “MBP+ mature oligodendrocyte number” value is -0.197. As to `CCS(=O)(=O)Nc1ccc2c(c1)/C(=C(/Nc1ccc(CN3CCCCC3)cc1)c1ccccc1)C(=O)N2` [Hesperadin], the “MBP+ mature oligodendrocyte number” value is below -5.15.

Regarding `O=C(Nc1ccc(-c2ccnc(Nc3ccc(N4CCOCC4)cc3)n2)cc1)C1CCCN1` (centres undefined), the “MBP+ mature oligodendrocyte number” value is -6.27. On to `COc1ccc2[nH]c([S+]([O-])Cc3ncc(C)c(OC)c3C)nc2c1` (centres undefined) [Omeprazole], for which the “MBP+ mature oligodendrocyte number” value was 6.39. With `NC(=S)N/N=C/c1ncccc1N` [Triapine], the “MBP+ mature oligodendrocyte number” value was -4.64. In the case of `Nc1cccc2c1CN(C1CCC(=O)NC1=O)C2=O` (centres undefined) [Lenalidomide (CC-5013)] it was 1.16; in that of `CCOC(=O)[C@H](CCc1ccccc1)N[C@@H](C)C(=O)N1CCC[C@H]1C(=O)O` [Enalapril Maleate], 1.51.

`NC[C@@H]1O[C@H](c2ccccc2)Cc2c1ccc(O)c2O`: the “MBP+ mature oligodendrocyte number” value was -0.675.

For the molecule `CNC(=O)[C@H](Cc1ccccc1)NC(=O)[C@H](CC(C)C)[C@H](CSc1cccs1)C(=O)NO` [Batimastat (BB-94)], the “MBP+ mature oligodendrocyte number” value was -5.76.

Regarding `NOCC(=O)O` [O-(Carboxymethyl)hydroxylamine hemihydrochloride], the “MBP+ mature oligodendrocyte number” value is 1.92. The same measure for `C=CC(=O)N1CCC[C@@H](n2nc(-c3ccc(Oc4ccccc4)cc3)c3c(N)ncnc32)C1`: 0.104; for `CC(=O)N1CCN(CCOc2ccc(C3CCN(C4=Nn5c(nnc5C(F)(F)F)CC4)CC3)cc2)CC1`: 0.66. For `C=CC(=O)Nc1ccc2ncnc(Nc3ccc(OCc4cccc(F)c4)c(Cl)c3)c2c1`, the “MBP+ mature oligodendrocyte number” value was -4.75. Turning to `CC1=C(CC(=O)O)c2cc(F)ccc2/C1=C\c1ccc([S+](C)[O-])cc1` (centres undefined) [Sulindac], the “MBP+ mature oligodendrocyte number” value is -0.886 ± 0.045. As to `C[C@]12CC[C@@H]3c4ccc(O)cc4CC[C@H]3[C@@H]1C[C@@H](O)[C@@H]2O` [Estriol], the “MBP+ mature oligodendrocyte number” value is -0.78. In the case of `Cc1nc(N)sc1-c1ccnc(Nc2ccc(N3CCOCC3)cc2)n1` it was below -6.7. `CCC[C@H](NC(=O)[C@@H]1[C@H]2CCC[C@H]2CN1C(=O)[C@@H](NC(=O)[C@@H](NC(=O)c1cnccn1)C1CCCCC1)C(C)(C)C)C(=O)C(=O)NC1CC1` [Telaprevir (VX-950)]: the “MBP+ mature oligodendrocyte number” value was -2.36. In the case of `Cc1noc(NS(=O)(=O)c2ccc(N)cc2)c1C` [Sulfisoxazole] it was -0.377. In the case of `O=CN(O)CCCP(=O)(O)O` [Fosmidomycin sodium salt hydrate] it was -0.676; in that of `CCc1cccc2c3c([nH]c12)C(CC)(CC(=O)O)OCC3` (centres undefined) [Etodolac], 2.18 ± 3.5.

As to `C[C@@H]1CN(CC(=O)Nc2ccc3c(c2)Cc2cccc(-c4cc(=O)cc(N5CCOCC5)o4)c2S3)C[C@H](C)O1`, the “MBP+ mature oligodendrocyte number” value was -4.97. As to `COc1cc(Nc2ncc(F)c(Nc3ccc4c(n3)N(COP(=O)(O)O)C(=O)C(C)(C)O4)n2)cc(OC)c1OC` [Fostamatinib (R788)], the “MBP+ mature oligodendrocyte number” value is below -6.01. The same measure for `COc1ccc(-c2cc(=O)c3c(O)cc(O[C@@H]4O[C@H](CO[C@@H]5O[C@@H](C)[C@H](O)[C@@H](O)[C@H]5O)[C@@H](O)[C@H](O)[C@H]4O)cc3o2)cc1O` [Diosmin]: 0.171; for `O=C(Nc1ccc2c(c1)CCN(Cc1ncn[nH]1)C2)c1ccccc1-c1ccc(C(F)(F)F)cc1`: 2; for `CC1(C)S[C@@H]2[C@H](NC(=O)[C@H](NC(=O)N3CCN(S(C)(=O)=O)C3=O)c3ccccc3)C(=O)N2[C@H]1C(=O)O` [Mezlocillin Sodium]: 5.05. The same measure for `Cn1c(=O)cc(N2CCC[C@@H](N)C2)n(Cc2ccccc2C#N)c1=O` [Alogliptin]: -0.0546; for `CCCCCCCN(CC)CCCC(O)c1ccc(NS(C)(=O)=O)cc1` (centres undefined) [Ibutilide Fumarate]: 2.63. With `Cc1nnc(C(C)C)n1C1C[C@H]2CC[C@@H](C1)N2CC[C@H](NC(=O)C1CCC(F)(F)CC1)c1ccccc1` (stereo in doubt) [Maraviroc], the “MBP+ mature oligodendrocyte number” value is 0.883 ± 1.5. In the case of `c1ccc2[nH]c(-c3cscn3)nc2c1` [Thiabendazole] it was 2.95; in that of `Cn1cc(-c2ccc3nnc(C(F)(F)c4ccc5ncccc5c4)n3n2)cn1`, -2.16. On to `CCC(CC)CC1(C(=O)Nc2ccccc2SC(=O)C(C)C)CCCCC1`, for which the “MBP+ mature oligodendrocyte number” value is -1.25.

For the molecule `CN1[C@@H](CC(=O)c2ccccc2)CCC[C@H]1C[C@H](O)c1ccccc1` [alpha-Lobeline hydrochloride], the “MBP+ mature oligodendrocyte number” value is -1.03. Regarding `CSc1nc(N)c2ncn([C@@H]3O[C@H](COP(=O)(O)OP(=O)(O)OP(=O)(O)O)[C@H](O)C3O)c2n1` (some centres undefined) [2-Methylthioadenosine triphosphate tetrasodium], the “MBP+ mature oligodendrocyte number” value was found to be 4.44. The same measure for `CC(=O)C(C)=O` [2,3-Butanedione]: -0.387. The same measure for `COc1cc(C(O)C(=O)O)ccc1O` (racemic) [(±)-Vanillylmandelic acid]: 0.921; for `CNC(=O)Nc1ccc(-c2nc(N3CC4CCC(C3)O4)c3cnn(C4CCC5(CC4)OCCO5)c3n2)cc1`: -5.69; for `COC1=C2C[C@@H](C)C[C@H](OC)[C@H](O)[C@@H](C)/C=C(\C)[C@H](OC(N)=O)[C@@H](OC)/C=C\C=C(/C)C(=O)NC(=CC1=O)C2=O` [Geldanamycin]: below -6.01.

Regarding `CN1CC2c3ccccc3Oc3ccc(Cl)cc3C2C1` (centres undefined) [Asenapine], the “MBP+ mature oligodendrocyte number” value was -5.83. The same measure for `COc1cc(C(=O)NC2CCCNC2)cc(OC)c1OC` (centres undefined) [Troxipide]: -0.185. Regarding `C[C@]12CC[C@@H]3c4ccc(O)cc4CC[C@H]3[C@@H]1CCC2=O` [Estrone], the “MBP+ mature oligodendrocyte number” value is 21.6 ± 26. The same measure for `CCCCCCCCc1ccc(CCC(N)(CO)CO)cc1` [Fingolimod (FTY720) HCl]: -6.27. In the case of `CCCCCCCC/C=C\CCCCCCCC(=O)NCCc1ccc(O)c(O)c1` [N-Oleoyldopamine], the “MBP+ mature oligodendrocyte number” value was below -3.85.

With `CC(C)Cc1ccc(C(C)C(=O)O)cc1` (racemic) [(±)-Ibuprofen], the “MBP+ mature oligodendrocyte number” value is -0.0882. In the case of `COc1cnc(NS(=O)(=O)c2ccc(N)cc2)nc1` [Sulfameter] it was -0.917; in that of `Cc1cccc(CN2CCN(C(c3ccccc3)c3ccc(Cl)cc3)CC2)c1` (centres undefined) [Meclizine 2HCl], -4.88; in that of `CC1CNCCN1S(=O)(=O)c1cccc2cnccc12` (centres undefined), -1.23.

In the case of `CNCCC(Oc1ccccc1OC)c1ccccc1` (centres undefined) [Nisoxetine hydrochloride], the “MBP+ mature oligodendrocyte number” value was -0.911. The same measure for `COc1cc(CCC(C)=O)ccc1O` [Vanillylacetone]: 1.35; for `O=NN(CCCl)C(=O)NC1CCCCC1` [Lomustine]: -0.557.

(Values after the supplement of paper PMC6135742.)
